Experimental data from the supplement of paper PMC12217912.
The list shows a part of the results. The full chains were built here from the parent and the listed change. Inactive controls read about 0.05.

B1: TEV protease; numbered along this chain (parent)
chain: MGESLFKGPRDYNPISSSICHLTNESDGHTTSLYGIGFGPFIITNKHLFRRNNGTLVVQSLHGVFKVKDTTTLQQHLVDGRDMIIIRMPKDFPPFPQKLKFREPQREERICLVTTNFQTKSMSSMVSDTSCTFPSGDGIFWKHWIQTKDGQCGSPLVSTRDGFIVGIHSASNFTNTNNYFTSVPKNFMELLTNQEAQQWVSGWRLNADSVLWGGHKVFMVKPEEPFQPVKEATQL

Variants of: B1
Assay: raw area under fraction-flipped curve 0-4 h after induction (AUC4h, not background-subtracted), DNA-recorder readout of cleavage of the substrate (dimensionless); higher = more cleavage of the substrate by the protease variant
Settings: temperature: 34 °C; time window: 0-4 h after rhamnose induction
Method: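 In vivo DNA recorder in E. coli TOP10(DE3) ΔrhaA at 34 °C. Each TEVp single-site mutant (parent TEVp 0) is paired with a single-site variant of the 7-mer TEVs (canonical ENLYFQ|S). The substrate sits between flexible linkers in a Bxb1-sfGFP-TEVs-SsrA fusion, so cleavage stabilises Bxb1 and speeds flipping of a recombination array, read by NGS. The value is the raw area under the fraction-flipped curve over 0-4 h after rhamnose induction (AUC4h), with ≥20 reads per time point. It is not background-subtracted; inactive controls average about 0.047.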
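Further: Bxb1 expression induced with 0.2% (w/v) L-rhamnose at OD600 near 0.5, cultures sampled hourly, flipped fraction per protease–substrate barcode pair counted by paired-end Illumina sequencing.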

Row | Variant | area with substrate ENLYFAS | area with substrate ENLYFCS | area with substrate ENLYFES | area with substrate ENLYFGS | area with substrate ENLYFHS | area with substrate ENLYFIS | area with substrate ENLYFMS | area with substrate ENLYFNS | area with substrate ENLYFPS | area with substrate ENLYFRS | area with substrate ENLYFVS | area with substrate ENLYFWS | area with substrate ENLYFKS | area with substrate ENLYFLS | area with substrate ENLYFTS | area with substrate ENLYFDS | area with substrate ENLYFFS | area with substrate ENLYFSS | area with substrate ENLYFYS
1 | C111R | 0.0621 | 0.0672 | 0.0603 | 0.0692 | 0.0505 | 0.0581 | 0.0511 | 0.0537 | 0.06 | 0.0753 | 0.0572 | 0.0524 |  |  |  |  |  |  | 
2 | F187L | 0.0603 | 0.0523 | 0.0422 | 0.0553 | 0.0538 | 0.0639 | 0.0608 | 0.0548 | 0.059 | 0.0633 |  | 0.0523 | 0.0697 | 0.044 | 0.0543 |  |  |  | 
3 | W199V | 0.0643 | 0.0526 | 0.0561 |  | 0.0535 | 0.0537 |  | 0.0598 |  |  |  |  |  |  |  | 0.0496 | 0.0692 |  | 
4 | C20K | 0.0489 | 0.0482 | 0.0436 | 0.0487 | 0.0456 | 0.0437 | 0.0524 | 0.047 | 0.0398 | 0.0398 | 0.0588 | 0.0541 | 0.0504 | 0.0611 | 0.0526 |  | 0.0542 | 0.0455 | 
5 | M122D |  | 0.0576 | 0.0719 | 0.0635 | 0.0546 | 0.0606 | 0.0842 | 0.0718 | 0.0533 | 0.0715 |  | 0.0645 |  | 0.0662 | 0.0606 | 0.0622 | 0.0726 | 0.0625 | 
6 | T30A | 0.0542 | 0.0595 | 0.0562 |  | 0.0452 | 0.0586 | 0.0663 | 0.0623 | 0.0532 | 0.0503 |  | 0.0511 | 0.0583 | 0.0641 | 0.0549 | 0.0591 | 0.0772 | 0.0665 | 
7 | L112P | 0.0485 | 0.055 | 0.0511 | 0.0673 | 0.059 | 0.055 | 0.052 | 0.061 | 0.0489 |  |  | 0.0755 | 0.0576 | 0.0524 | 0.0515 | 0.0602 | 0.0909 |  | 0.0541
8 | I42E | 0.041 | 0.0538 | 0.0453 |  | 0.0546 | 0.0372 | 0.0396 | 0.0427 | 0.0476 | 0.0329 |  | 0.0505 | 0.0605 | 0.0538 | 0.0481 | 0.0391 | 0.0387 | 0.0387 | 
9 | F180D | 0.0523 | 0.0598 |  | 0.0593 |  | 0.0552 | 0.0406 | 0.051 | 0.0591 |  |  |  | 0.061 |  |  |  |  | 0.0444 | 0.0427
10 | T44V |  | 0.0589 |  |  |  |  |  | 0.066 | 0.0485 | 0.0746 | 0.047 |  | 0.0541 | 0.0405 | 0.0604 |  | 0.0508 | 0.0656 | 
11 | Q234C | 0.0638 |  | 0.0673 | 0.0446 | 0.0478 | 0.0435 | 0.0733 | 0.0532 |  |  |  | 0.0499 | 0.0605 | 0.0608 |  | 0.0438 | 0.0641 | 0.0626 | 0.0636
12 | T129Y |  | 0.0673 | 0.0534 | 0.049 | 0.0535 | 0.0519 | 0.0664 | 0.0644 | 0.0568 | 0.0528 | 0.0662 | 0.0855 |  | 0.0553 | 0.0598 |  | 0.0514 | 0.0499 | 0.0509
